Measured values reported in PMC4336329 (PLoS ONE, 2015).
Hit rate of the full screen: of about 310,000 compounds, about 2,200 (0.71%) showed an effect of 50% or more. Effects have a minus sign here. This is one part of the list.

These compounds were tested against human ether-à-go-go-related gene (hERG) potassium channel (human, UniProt Q12809) (assay: primary screen, population patch clamp on CHO cells stably expressing hERG).
Chain of human ether-à-go-go-related gene (hERG) potassium channel (Q12809 whole entry, looked up): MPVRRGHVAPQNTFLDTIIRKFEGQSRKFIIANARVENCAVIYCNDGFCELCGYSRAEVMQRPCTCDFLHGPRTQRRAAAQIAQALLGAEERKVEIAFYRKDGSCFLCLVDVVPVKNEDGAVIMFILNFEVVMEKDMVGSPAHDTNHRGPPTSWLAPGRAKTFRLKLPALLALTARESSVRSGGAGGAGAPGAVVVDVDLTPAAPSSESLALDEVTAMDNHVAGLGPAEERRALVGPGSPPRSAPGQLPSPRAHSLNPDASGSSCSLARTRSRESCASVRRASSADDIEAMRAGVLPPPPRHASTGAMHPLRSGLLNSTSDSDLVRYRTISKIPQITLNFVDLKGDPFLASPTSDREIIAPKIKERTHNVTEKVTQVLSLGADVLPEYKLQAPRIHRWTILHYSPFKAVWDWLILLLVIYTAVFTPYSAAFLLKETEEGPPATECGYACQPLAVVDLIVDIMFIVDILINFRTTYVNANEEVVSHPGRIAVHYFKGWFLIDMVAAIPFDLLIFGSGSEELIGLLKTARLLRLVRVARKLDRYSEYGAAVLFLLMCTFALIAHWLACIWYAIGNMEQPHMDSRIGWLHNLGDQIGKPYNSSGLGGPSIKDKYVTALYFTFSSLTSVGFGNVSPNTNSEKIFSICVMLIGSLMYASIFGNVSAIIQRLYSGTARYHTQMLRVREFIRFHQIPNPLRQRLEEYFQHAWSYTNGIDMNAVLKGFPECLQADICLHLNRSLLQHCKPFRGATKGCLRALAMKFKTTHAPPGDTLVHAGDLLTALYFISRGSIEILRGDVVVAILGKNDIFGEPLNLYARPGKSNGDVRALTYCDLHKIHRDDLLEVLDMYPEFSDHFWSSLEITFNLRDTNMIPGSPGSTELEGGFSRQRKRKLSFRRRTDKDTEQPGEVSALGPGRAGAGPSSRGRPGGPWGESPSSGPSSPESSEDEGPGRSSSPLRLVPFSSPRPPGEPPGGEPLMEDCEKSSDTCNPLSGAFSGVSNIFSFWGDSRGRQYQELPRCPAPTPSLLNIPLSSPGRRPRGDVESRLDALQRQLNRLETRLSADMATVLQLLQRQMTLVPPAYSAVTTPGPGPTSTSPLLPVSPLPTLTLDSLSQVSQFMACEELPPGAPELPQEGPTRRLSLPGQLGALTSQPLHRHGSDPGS

Row | Compound | hERG current change (%, negative = inhibition) at 1uM [%]
1 | Cc1cccc(C)c1NC(=O)c1cccc2c1C(=O)N(C1CCCCC1)C2 | 10.1
2 | COc1ccc(Cl)cc1NC(=O)CN1C(=O)NC(C)(Cc2ccc(OC)c(OC)c2)C1=O (stereo not shown) | 8.86
3 | CCn1ccc(C(=O)NCCCN2CCCC2=O)n1 | -2.78
4 | COc1ccc(Cc2c(O)nc[nH]c2=O)cc1 | 19.2
5 | O=C(NCCNC(=O)c1ccc([N+](=O)[O-])cc1)c1ccncc1 | 16.5
6 | CCC(=O)c1ccc(OCC(O)CN2CCN(S(=O)(=O)N3CCCCC3)CC2)cc1 (stereo not shown) | 3.13
7 | Cc1cc(N)n(-c2ccccn2)n1 | 12.1
8 | CCCCOC(=O)C(C)Nc1n[nH]c(=O)[nH]c1=O (stereo not shown) | 11.9
9 | Cc1ccc(S(=O)(=O)N(C)C)cc1NC(=S)Nc1cccc2ccccc12 | -2.98
10 | CC12CCC(=O)N1C(C(=O)NNC(=O)c1ccccc1F)CS2 (stereo not shown) | 15.1
11 | Cc1cc(Oc2ccccc2)nc(SCC(=O)Nc2ccc(Cl)c(Cl)c2)n1 | -2.3
12 | CC(C)(C)c1ccc(OCC(O)CN2CCc3ccccc3C2)cc1.Cl (stereo not shown) | 3.04
13 | Cc1nn(-c2ccc(C(=O)OC(C)C)cc2)c(C)c1[N+](=O)[O-] | 12.7
14 | S=C(NCCc1ccccc1)Nc1ccccc1Cl | 8.47
15 | COc1ccc(CN(CC(=O)NCc2ccco2)C(=O)CNS(=O)(=O)c2ccc(C)cc2)cc1 | -0.462
16 | COCCCNC(=S)N1CCN(c2nc3ccccc3s2)CC1 | 4.7
17 | COc1ccccc1N1CCN(C(=O)c2onc(C)c2Cl)CC1 | -9.89
18 | COc1ccc(C(=O)N2CCCC(C(N)=O)C2)cc1S(=O)(=O)N1CCOCC1 (stereo not shown) | 10.7
19 | O=C(NCCC1=CCCCC1)c1cc(S(=O)(=O)N2CCOCC2)ccc1F | 2.18
20 | Cc1cc2occ(CC(=O)NC3=NCCS3)c2cc1C(C)C | 19.3
21 | CCC(CC)C(=O)Nc1cccc(/C(C)=N\NC(=O)c2ccc(C)s2)c1 | 7.6
22 | Cc1cc(C)cc(N(CC(=O)NCc2ccco2)S(=O)(=O)c2ccccc2)c1 | 8

Row | Compound | hERG current change (%, negative = inhibition) at 1uM [%]
23 | Cc1cc2c(cc1S(=O)(=O)Nc1cccc(C)c1C)n(C)c(=O)c(=O)n2C | -10.7
24 | CC1CC(C)CN(S(=O)(=O)c2ccc(C(=O)Nc3nnc(C4CC4)o3)cc2)C1 (stereo not shown) | 10.1
25 | CCN(CC(=O)Nc1ccc2c(c1)OCCO2)C(=O)/C=C/c1ccc([N+](=O)[O-])cc1 | -8.69
26 | Cc1cc(C)cc(NC(=O)NC(C)C2CCCO2)c1 (stereo not shown) | 14
27 | CCN(CC)CCOC(=O)c1ccc(N/C=C(/C#N)c2nc(-c3ccc(OC)cc3)cs2)cc1 | 14.1
28 | COc1ccc(CC(=O)O/N=C(\N)Cc2ccc([N+](=O)[O-])cc2)cc1 | -13.8
29 | COCCNC(=O)C(c1ccc(C)cc1)N(Cc1cccs1)C(=O)CCC(=O)Nc1ccccn1 (stereo not shown) | 13.6
30 | Cc1ccc(C(=O)c2cc([N+](=O)[O-])ccc2N2CCN(C)CC2)cc1 | -40.4
31 | Cc1ccc(NC(=O)CSc2nc3[nH]ncc3c(=O)[nH]2)cc1Cl | 9.59
32 | COc1ccccc1CN(C)C(=O)CSc1nnc(C2CC2)n1C1CC1 | 11.4
33 | COc1ccc(-c2cc(C(=O)N3CCN(C(=O)c4ccco4)CC3)[nH]n2)cc1 | -12.7
34 | COC(=O)c1cccc(Nc2ccc([N+](=O)[O-])cn2)c1 | 12.6
35 | Cc1cccc(S(=O)(=O)NC(Cc2c[nH]c3ccccc23)C(=O)O)c1 (stereo not shown) | 16.7
36 | CN1CCN(CC(=O)c2ccccc2F)CC1.O=C(O)C(=O)O | 18.5
37 | O=C(N/N=C/c1cc([N+](=O)[O-])ccc1O)c1cc(-c2ccccc2)nc2ccccc12 | 17.8
38 | O=C(CCC(=O)Nc1ccc(F)cc1)N/N=C/c1ccc(O)cc1 | 12.2
39 | O=C(CSC1=NS(=O)(=O)c2cc(F)ccc2N1)Nc1ccccc1 | 11.8
40 | Cc1cc(C(=O)O)c(C)n1Cc1ccncc1 | 4.87
41 | COc1ccc(OCc2cc(C(=O)N[C@H]3CCCCNC3=O)no2)c(Cl)c1 | 8.31
42 | COCc1cc(=O)oc2cc(NS(=O)(=O)c3ccc(C)cc3)ccc12 | 16.5
43 | CCN(C(=O)COC(=O)CCOc1ccccc1)c1c(N)n(Cc2ccccc2)c(=O)[nH]c1=O | 16
44 | COc1cc(C(c2c(C)[nH][nH]c2=O)c2c(C)[nH][nH]c2=O)cc([N+](=O)[O-])c1O | 5.04

Row | Compound | hERG current change (%, negative = inhibition) at 1uM [%]
45 | Cc1ccnc(NC(=O)c2cc3cc(F)ccc3s2)c1 | 18.6
46 | COc1ccc(S(=O)(=O)N2CCN(CC(=O)c3[nH]c(C)c(C(C)=O)c3C)CC2)cc1OC | 10.5
47 | Cc1ccc(C)c(N2CCN(C(=O)C3CCC3)CC2)c1 | 13.6
48 | CC(C)(C)c1nc2c(s1)CCc1onc(-c3ccc(Cl)cc3)c1-2 | 14.9
49 | Cn1nnnc1SCc1ccc(C(=O)Nc2ccccc2F)cc1 | 10.5
50 | Cc1ccc(N(CC(=O)NCC2CCCO2)S(=O)(=O)c2ccc(Cl)cc2)cc1C (stereo not shown) | -9.43
51 | CN(C)c1ccnc(N(Cc2ccccc2)Cc2ccccc2)c1C#N.Cl | 4.29
52 | Cc1cc(C)c(NC(=O)CCCSc2nnc(N)s2)c(C)c1 | -4.26
53 | Cc1c(C(=O)OCC(=O)NCCN2C(=O)CSC2=O)cccc1[N+](=O)[O-] | -0.686
54 | Cc1ccc(-n2c(Cc3cccn3C)nnc2SCC(=O)N2CCN(c3ccccc3)CC2)cc1 | 7.16
55 | COc1cccc(NC(=O)NCc2ccccn2)c1 | 10.4
56 | COc1ccc(CCNC(=O)CCNC(=O)c2ccc([N+](=O)[O-])cc2)cc1 | 3.57
57 | Cc1nn(C)c2ncc(C(N)=O)c(Oc3cccnc3)c12 | 5.33
58 | COC(=O)C1CCN(C(=O)COC(=O)CNS(=O)(=O)c2ccc(SC)c([N+](=O)[O-])c2)CC1 | 3.87
59 | Cc1nc2nc(SCC(=O)NCCCN3CCCCCC3)nn2c(C)c1Cc1ccccc1 | 5.32
60 | COc1ccc(CCNC(=O)CN2CCN(c3cccc(Cl)c3)CC2)cc1OC | -1
61 | Cn1c(CCNC(=O)c2ccccc2)nc2ccccc21 | 3.32
62 | Cc1ccc(NC(=O)CSc2nc3ccccc3nc2N2CCCC2)cc1 | -2.13
63 | Cc1nn(CC(=O)NCCCN2CCCCC2)c(=O)c2cccn12 | 15.8
64 | CCOC(=O)CNC(=S)N(Cc1ccc(C)cc1)Cc1ccc(C)o1 | 13.6
65 | CC(=O)Nc1ccc(NC(=O)C2CCCN2C(=O)Nc2ccc(F)c([N+](=O)[O-])c2)cc1 (stereo not shown) | 9.34
66 | CC(C)NC(=O)Nc1cccs1 | 0.285

Row | Compound | hERG current change (%, negative = inhibition) at 1uM [%]
67 | CCCCn1c(N)c(NCCC(C)C)c(=O)[nH]c1=O | 4.07
68 | CCn1c(SCC(=O)NC2CCCCC2)nnc1C(CO)NC(=O)c1ccccc1 (stereo not shown) | 14.4
69 | CCCN(Cc1ccc(C)cc1)C(=O)c1ccc(CNS(=O)(=O)c2ccc(C(C)=O)cc2)cc1 | 11.1
70 | COc1cc(NC(=O)c2ccc(=O)[nH]n2)cc(OC)c1OC | 10.1
71 | CCOC(=O)c1sc(=NC(=O)c2ccc(Cl)s2)n(C)c1C | 9.8
72 | Cc1cc(C)nc(N/N=C/C2=C(N3CCOCC3)C(=C\c3ccc(Cl)cc3)/CC2)n1.Cl | -8.67
73 | CCCCCn1c(SC(C)C(C)=O)nc2c1c(=O)[nH]c(=O)n2C (stereo not shown) | -91.2
74 | NC(=O)c1cc2cc(Cl)ccc2o/c1=N/NC(=O)c1cccs1 | 8.08
75 | O=C(CN1CCN(Cc2cccc3ccccc23)CC1)NCCc1ccccc1 | 1.53
76 | CN(c1ccc(OCC(=O)NC2=NCCS2)cc1)S(=O)(=O)c1ccc(F)cc1 | 11.2
77 | CCN(CC(=O)Nc1ccccc1OC)C(=O)CN1C(=O)NC(C)(c2ccc(C)cc2)C1=O (stereo not shown) | -2.64
78 | O=C(CN1CCN(S(=O)(=O)c2ccc(Br)cc2)CC1)Nc1ccccc1F | 1.13
79 | CCOc1ccc(NC(=O)CN(C)C(=O)CC2CCCC2)cc1OCC | 11.4
80 | O=C(CSc1cc(Cl)ccc1Cl)NC1CCCc2ccccc21 (stereo not shown) | 1.23
81 | O=C(CCn1c2c(c3ccccc31)CCCC2)NNC(=O)c1ccccc1[N+](=O)[O-] | -0.313
82 | CCOC(=O)c1cnc2ccc(OCC)cc2c1NCCN1CCOCC1.Cl | -32.8
83 | COc1ccc(NC(=S)NCCCN2CCCC2)cc1 | 10.8
84 | O=c1cc(N2CCc3ccccc32)[nH]c(=O)n1Cc1ccc(F)cc1 | 7.35
85 | CSc1cc(-c2ccccc2)n(Cc2ccc(Cl)cc2Cl)c(=O)c1C#N | 6.42
86 | O=C(O)Cn1nc(-c2ccccc2)cc1-c1ccccc1 | 13.8
87 | c1ccc(CN2CCN(Cc3nnc(-c4ccccc4)o3)CC2)cc1 | 0.426
88 | CCCCn1c(N)c(N(CC)C(=O)c2cccc(F)c2)c(=O)[nH]c1=O | 10.2
